Experimental data published in the antibiotic and cytotoxicity screens of Wong et al. (2023).
The list shows a part of the results.

Experiments:
HSkMC = human skeletal muscle cells; assay: cytotoxicity call (relative viability < 0.9); details: 10 µM
HepG2 = assay: cytotoxicity call (relative viability < 0.9); details: 10 µM
S. aureus RN4220 = assay: growth inhibition call (relative growth <= 0.2); details: 50 µM

Row | SMILES | cytotoxicity call (HSkMC) | cytotoxicity call (HepG2) | growth inhibition call (S. aureus RN4220)
1 | CS(=O)(=O)N1CC[C@@H]2OCCN(C(=O)c3cccnc3)[C@@H]2C1 | inactive | inactive | inactive
2 | COc1ccc(S(=O)(=O)N(C)C[C@H]2Oc3ccc(N(C)C)cc3C(=O)N([C@@H](C)CO)C[C@H]2C)cc1 | inactive | inactive | inactive
3 | CO[C@H]1C[C@@H]2CC[C@@H](C)[C@@](O)(O2)C(=O)C(=O)N2CCCC[C@H]2C(=O)O[C@H]([C@H](C)C[C@@H]2CC[C@@H](OP(C)(C)=O)[C@H](OC)C2)CC(=O)[C@H](C)/C=C(\C)[C@@H](O)[C@@H](OC)C(=O)[C@H](C)C[C@H](C)/C=C/C=C\C=C\1C | inactive | inactive | inactive
4 | O=C(OCc1ccco1)c1ccc(-c2ccc(Cl)cc2)s1 | inactive | inactive | inactive
5 | N[C@@]1(C(=O)O)CS(=O)(=O)[C@H]2[C@H](C(=O)O)[C@H]21 | inactive | inactive | inactive
6 | C/C=C\C1=C(C(=O)O)N2C(=O)[C@H](NC(=O)[C@@H](N)c3ccc(O)cc3)[C@@H]2SC1 | inactive | inactive | inactive
7 | C[C@H]1CN([C@@H](C)CO)C(=O)c2cc(NC(=O)NC3CCCCC3)ccc2O[C@H]1CN(C)Cc1ccc(-c2ccccc2)cc1 | inactive | inactive | inactive
8 | C[C@H](CO)N1C[C@H](C)[C@H](CN(C)C(=O)Nc2ccc(F)cc2)Oc2ccc(NC(=O)Nc3cccc4ccccc34)cc2C1=O | inactive | inactive | inactive
9 | COCC(=O)N1CC(=O)N2[C@@H](CO)[C@H](c3ccc(C#Cc4cccnc4)cc3)[C@@H]2C1 | inactive | inactive | inactive
10 | C=CC[n+]1ccccc1/C=N/O | inactive | inactive | inactive
11 | O=C1OCCN/C1=C/C(=O)c1ccccc1 | inactive | active | inactive
12 | COc1ccc(S(=O)(=O)Nc2cccc3c2O[C@H](CN(C)C(=O)Nc2cccc4ccccc24)[C@H](C)CN([C@H](C)CO)C3=O)cc1 | inactive | inactive | inactive
13 | C[C@@H]1CCCCO[C@H](CN(C)C(=O)c2ccncc2)[C@@H](C)CN([C@H](C)CO)C(=O)c2cc(NS(=O)(=O)c3cn(C)cn3)ccc2O1 | inactive | inactive | inactive
14 | CC1CCC2(OC1)OC1CC3C4CCC5CC(O)CCC5(C)C4CC(=O)C3(C)C1C2C (stereo not given) | inactive | inactive | inactive
15 | C[C@H](CO)N1C[C@H](C)[C@H](CN(C)C(=O)Nc2ccccc2)Oc2cc(C#C[C@@H](C)O)ccc2S1(=O)=O | inactive | inactive | inactive
16 | O=C(C[C@@H]1CC[C@H]2[C@@H](COC[C@H](O)CN2S(=O)(=O)c2ccccc2)O1)N[C@@H]1CCN(Cc2ccccc2)C1 | inactive | inactive | inactive
17 | C[C@@H]1CCCCO[C@@H](CN(C)S(=O)(=O)c2cn(C)cn2)[C@@H](C)CN([C@H](C)CO)C(=O)c2cc(NS(C)(=O)=O)ccc2O1 | inactive | inactive | inactive
18 | C[C@H]1CN([C@@H](C)CO)C(=O)c2cccc(NS(=O)(=O)c3cccs3)c2O[C@H]1CN(C)Cc1ccc(Oc2ccccc2)cc1 | inactive | inactive | inactive
19 | Cc1noc(C)c1S(=O)(=O)Nc1ccc2c(c1)C(=O)N([C@@H](C)CO)C[C@@H](C)[C@@H](CN(C)C(=O)Nc1ccccc1)OCCCC[C@H](C)O2 | inactive | inactive | inactive
20 | Cc1ccc(S(=O)(=O)N(C)C[C@@H]2OCCCC[C@H](C)Oc3ccc(NC(=O)Nc4c(C)noc4C)cc3C(=O)N([C@H](C)CO)C[C@@H]2C)cc1 | inactive | inactive | inactive
21 | C[C@H]1CN([C@@H](C)CO)C(=O)Cc2cc(NC(=O)Cn3cnnn3)ccc2O[C@@H]1CN(C)Cc1ccncc1 | inactive | inactive | inactive
22 | C[C@@H]1CCCCO[C@@H](CN(C)CC2CC2)[C@H](C)CN([C@H](C)CO)C(=O)c2cc(NC(=O)Nc3ccc4c(c3)OCO4)ccc2O1 | inactive | inactive | inactive
23 | Cc1ccc2c(c1)/C(=C/c1ccncc1)c1cc3ccccc3nc1-2 | inactive | active | inactive
24 | C[C@H]1CN([C@@H](C)CO)C(=O)Cc2cc(NC(=O)Cc3cn(C)c4ccccc34)ccc2O[C@H]1CN(C)C(=O)Nc1cccc2ccccc12 | inactive | inactive | inactive
25 | C[C@H]1CN([C@@H](C)CO)C(=O)CCCn2nncc2CO[C@H]1CN(C)C(=O)CCCN(C)C | inactive | inactive | inactive
